# Results published in publication PMC4336329 (PLoS ONE, 2015).
# Screen size: about 310,000 compounds; about 14,000 (4.5%) showed an effect of 50% or more. Effects have a minus sign here. This is one part of the list.
# Target: human ether-à-go-go-related gene (hERG) potassium channel (human, UniProt Q12809)
# Experiment: primary screen, population patch clamp on CHO cells stably expressing hERG
# 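Further: peak tail current of the secondary pulse compared with the same well before compound.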
# Chain of human ether-à-go-go-related gene (hERG) potassium channel (Q12809 whole entry, looked up): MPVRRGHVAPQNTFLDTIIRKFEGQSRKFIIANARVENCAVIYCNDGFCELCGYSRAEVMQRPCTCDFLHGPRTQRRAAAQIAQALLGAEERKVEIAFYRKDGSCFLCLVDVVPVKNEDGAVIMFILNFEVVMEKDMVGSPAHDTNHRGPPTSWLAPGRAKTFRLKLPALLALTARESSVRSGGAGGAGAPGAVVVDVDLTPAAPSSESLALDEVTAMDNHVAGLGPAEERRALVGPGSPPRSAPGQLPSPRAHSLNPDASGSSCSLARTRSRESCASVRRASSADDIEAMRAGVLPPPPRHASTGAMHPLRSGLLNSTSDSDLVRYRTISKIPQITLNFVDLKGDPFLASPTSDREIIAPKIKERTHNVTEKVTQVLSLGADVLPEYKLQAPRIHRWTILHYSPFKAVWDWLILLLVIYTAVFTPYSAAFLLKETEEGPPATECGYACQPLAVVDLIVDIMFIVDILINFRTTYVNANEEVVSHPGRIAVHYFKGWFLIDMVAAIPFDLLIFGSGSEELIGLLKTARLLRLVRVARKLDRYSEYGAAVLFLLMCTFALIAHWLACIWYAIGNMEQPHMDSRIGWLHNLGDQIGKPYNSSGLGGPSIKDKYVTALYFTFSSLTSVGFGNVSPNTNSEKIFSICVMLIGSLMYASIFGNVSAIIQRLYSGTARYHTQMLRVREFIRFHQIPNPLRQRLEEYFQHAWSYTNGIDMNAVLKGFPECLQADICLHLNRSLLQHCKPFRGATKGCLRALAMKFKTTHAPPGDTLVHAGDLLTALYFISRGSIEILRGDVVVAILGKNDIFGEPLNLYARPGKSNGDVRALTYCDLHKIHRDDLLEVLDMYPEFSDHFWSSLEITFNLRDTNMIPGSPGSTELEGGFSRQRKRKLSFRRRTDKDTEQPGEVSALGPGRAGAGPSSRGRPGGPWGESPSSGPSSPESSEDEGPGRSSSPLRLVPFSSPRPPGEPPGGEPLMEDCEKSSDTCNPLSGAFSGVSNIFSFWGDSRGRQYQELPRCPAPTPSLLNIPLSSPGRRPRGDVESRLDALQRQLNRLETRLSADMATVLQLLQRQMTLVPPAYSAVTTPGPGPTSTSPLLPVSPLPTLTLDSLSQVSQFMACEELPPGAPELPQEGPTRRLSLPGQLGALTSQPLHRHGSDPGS
row,Compound,"hERG current change (%, negative = inhibition) at 10uM"
1,Cc1cccc(CC(=O)N2CCC(n3nccc3NC(=O)C3CC3)CC2)c1,15.3%
2,COC(=O)c1sc2nc(C)nc(SCC(=O)N3CCC(C(=O)O)CC3)c2c1C,36.5%
3,COc1ccc(Nc2cc(C(=O)NCCCN3CCN(C)CC3)c3ccccc3n2)cc1,2.72%
4,OCCC1CN(Cc2ccccc2O)CCN1CCCc1ccccc1 (stereo not shown),-74.8%
5,CCCCN(CC)S(=O)(=O)c1ccc(C(=O)N(CCCN(C)C)c2nc3cc(C)cc(C)c3s2)cc1.Cl,-73%
6,Cc1nn(CC#N)c(=O)n1-c1ccccc1F,10.8%
7,CC(C)(C)c1ccc(OCCC(=O)Nc2cccc(S(=O)(=O)N3CCCC3)c2)cc1,3.88%
8,O=C(CC1(O)C(=O)Nc2ccccc21)c1ccccc1 (stereo not shown),9.95%
9,Cc1ccc(N(C(=O)C2CCCC2)C2C=CS(=O)(=O)C2)cc1C (stereo not shown),4.85%
10,COc1ccc(N(C(=O)c2cccc(OC)c2OC)C2C=CS(=O)(=O)C2)c(OC)c1 (stereo not shown),-4.96%
11,CCOC(=O)c1nnn(-c2nonc2N)c1-c1ccccc1,-3.78%
12,CC1(C)CCC/C(=C\c2ccccc2)C1=O,-12.2%
13,S=C(NCc1ccc(Cl)cc1)Nc1ccccc1Cl,7.31%
14,O=C(COC(=O)c1cc([N+](=O)[O-])ccc1NCCO)Nc1cccc(S(=O)(=O)N2CCCC2)c1,2.59%
15,O=C(Nc1ccncc1)c1c(F)cccc1F,-3.53%
16,CCn1c(CN2CCOCC2)nnc1SCC(=O)Nc1ccc(C(C)=O)cc1,3.23%
17,NCc1cccc(-n2cccn2)c1.O=C(O)CC(=O)O,-8.09%
18,O=C(NCc1ccccc1)c1ccccc1OCC(=O)N1CCCCC1,-5.36%
19,CCOc1ccc(/C(O)=C2/C(=O)C(=O)N(CCOCCO)C2c2ccc(F)cc2)cc1 (stereo not shown),7.73%
20,Cc1ccc(Cn2nnc3c(=O)[nH]c(C4CCCN(C(=O)c5ccco5)C4)nc32)cc1 (stereo not shown),-16.1%
21,O=C(COC(=O)COc1ccc(Cl)cc1)NCc1cccs1,7.36%
22,COc1ccc(Cn2cccc(NC(=O)Nc3cccc(C#N)c3)c2=O)cc1,22.8%

row,Compound,"hERG current change (%, negative = inhibition) at 10uM"
1,NC(=O)CC(CC(=O)OCc1ccccc1)c1ccccc1 (stereo not shown),10.8%
2,CCCNC(=O)C12CCC(C)(c3nc4cc(C)c(C)cc4nc31)C2(C)C (stereo not shown),-5.58%
3,COc1ccc(OCC(O)CN2CCCCC2)cc1.Cl (stereo not shown),8.1%
4,CC(C)CCOc1ccc(Cl)cc1CN1CCOCC1.Cl,-2.16%
5,CCOC(=O)c1cc(CC)sc1NC(=O)c1ccc(N2C(=O)CCC2=O)cc1,9.59%
6,CCOc1ccc(S(=O)(=O)N2CCCC(C(=O)NCC3CCCO3)C2)cc1 (stereo not shown),-19.5%
7,Cc1ccccc1S(=O)(=O)Oc1cccc2c(O)cccc12,18%
8,O=C1CC(c2c[nH]c3ccccc23)C(=O)N1c1ccccc1 (stereo not shown),-2.29%
9,CCC(=O)N(CCc1ccccc1)Cc1cc2ccc(OC)cc2[nH]c1=O,-31.3%
10,Br.COc1ccc(C(=O)CN2CCCCC2)cc1,7.07%
11,CN(c1ccccc1)S(=O)(=O)c1ccc(C(=O)NCc2ccccc2F)cc1,-4.24%
12,O=C(Nc1ccc(Cl)cc1)c1cccnc1N1CCCCC1,-13.3%
13,CCCN(CC1CC1)C(=O)CCc1nnc(CCc2c[nH]c3ccccc23)o1,-6.77%
14,COc1ccc(C(=O)Nc2ccccc2N2CCOCC2)cc1[N+](=O)[O-],-10.5%
15,COc1cc(OC)cc(-c2c(-c3cccs3)c3cc(Br)ccc3n2C)c1,18.6%
16,CCOc1ccc(NC(=O)NC2CCS(=O)(=O)C2)cc1 (stereo not shown),-29.4%
17,Cc1ccc(S(=O)(=O)N2CCCCC2c2cccnc2)c(C)c1C (stereo not shown),-30.1%
18,O=C(NC1CCN(C(=O)Nc2cccc(Cl)c2)CC1)c1ccccc1,1.02%
19,CCc1ccc(-c2csc(NC(=O)C3CC(=O)N(c4ccc5c(c4)OCCO5)C3)n2)cc1 (stereo not shown),11.4%
20,Cc1nc(C)c(-c2csc(Nc3ccc(S(N)(=O)=O)cc3)n2)s1,19.9%
21,CC(C(=O)OCC(=O)c1ccc(Br)cc1)N1C(=O)C2C3C=CC(C3)C2C1=O (stereo not shown),1.25%
22,CC1CCN(C2=NC(=O)/C(=C/c3cn[nH]c3-c3ccccc3)S2)CC1,-7.85%

row,Compound,"hERG current change (%, negative = inhibition) at 10uM"
1,CCCCCC(=O)Nc1nnn(CCC)n1,4.41%
2,CC(=O)c1cccc(NC(=O)CN2CCc3cc4c(cc3C2)OCCCO4)c1,-18.8%
3,Cc1[nH]c2ccccc2c1/C=N/NC(=O)c1cccc(S(=O)(=O)Nc2ccccc2Cl)c1,18.6%
4,Cc1ccc(C)c2c1sc(=NC(=O)CN1C(=O)CCC1=O)n2C,-13.6%
5,CC(C)(C)c1ccc(C(=O)NC(=S)NNC(=O)c2cccs2)cc1,33%
6,COc1ccc(-c2cc(-c3ccccc3)nc(N3CCCC3)n2)cc1OC,-7.76%
7,C=CCNC(=O)C(=O)NCCOc1ccccc1Cl,5.25%
8,COc1ccc(/C=C(\NC(=O)c2ccccc2)C(=O)N2CCN(C)CC2)cc1OC,20%
9,COC(=O)c1cc(=O)n(-c2ccc(F)cc2)c(=Nc2ccc(F)cc2)s1,8.23%
10,O=C(CN1CCOCC1)Nc1ccc(Oc2ccccc2)cc1,-9.26%
11,COc1cc(C2CC(=O)N3CN(Cc4ccco4)CSC3=C2C#N)ccc1OCc1ccccc1 (stereo not shown),15.1%
12,COc1cccc(N/C(N)=N/c2nc(C(F)(F)F)cc(=O)[nH]2)c1,0.0128%
13,O=C(Nc1cccc(Cl)c1)Nc1cccc(Cl)c1,13.2%
14,CCc1ccc(OCC(=O)NC(C)(C)C)cc1,21.9%
15,COCCn1c(=O)[nH]c(=O)c2c(C(F)(F)F)cc(-c3cccs3)nc21,8.95%
16,Cc1oc(C)c(C(=O)NCCCC(=O)O)c1C(=O)NCCCC(=O)O,28.3%
17,Cc1ccc2nc(-c3ccc(NC(=S)NC4CC(C)(C)NC(C)(C)C4)cc3)sc2c1,4.59%
18,O=C(C1CCCCCC1)N1CC[C@@H](N2CCC(O)CC2)[C@H](O)C1,12.6%
19,O=c1nc(-c2ccccc2)c2ccccc2[nH]1,-1.29%
20,Cc1ccc(N(CC(O)CN2C(=O)NC(C)(C)C2=O)S(=O)(=O)c2ccc(C)cc2)cc1 (stereo not shown),-20.3%
21,CCNc1nc(N)nc(-c2cc(Cl)ccc2O)n1,15.7%
22,CCCCOc1ccc(/C(O)=C2/C(=O)C(=O)N(Cc3cccnc3)C2c2ccncc2)c(C)c1 (stereo not shown),-1.61%

row,Compound,"hERG current change (%, negative = inhibition) at 10uM"
1,Nc1nc(N)nc(-c2cc([N+](=O)[O-])ccc2O)n1,-1.71%
2,Cc1cccc(NC(=O)COc2coc(CN3CCN(c4ccccc4)CC3)cc2=O)c1,-7.9%
3,Cc1ccc(-n2c(SCC(=O)Nc3cccc(C)c3)nc3c(oc4ccccc43)c2=O)cc1,18.7%
4,Cc1ccc(NC(=S)Nc2cccc3cnccc23)c(C)c1,45.2%
5,O=C(COC(=O)CCc1ccccc1)Nc1ncc(Cl)cc1Cl,-7.23%
6,CCCOC(=O)/C(C)=N\NC(=O)c1ccco1,14.8%
7,O=C(Cc1ccccc1)N1CCCC(c2nc(-c3ccc(S(=O)(=O)N4CCCC4)cc3)no2)C1 (stereo not shown),-9.11%
8,CCOC(=O)c1ccc(Nc2ncnc3ccc(C)cc23)cc1,6.65%
9,O=c1oc2ccccc2c2c1nnn2CCO,8.06%
10,COc1ccc(N(C(=O)COc2ccccc2)C2C=CS(=O)(=O)C2)cc1 (stereo not shown),-1.57%
11,CC1Cc2ccccc2N1C(=O)COC(=O)Cn1cnc2ccccc2c1=O (stereo not shown),-10.8%
12,COCCN=c1scc(-c2cccs2)n1/N=C(\C)c1ccco1,-2.51%
13,Cc1ccc(NC(=O)COC(=O)C2COc3ccccc3O2)cc1S(=O)(=O)N1CCOCC1 (stereo not shown),-13.1%
14,O=C(NC1CCCC1)C(c1ccccn1)N(C(=O)c1csnn1)c1ccccc1Br (stereo not shown),-9.47%
15,CCN1CCN(C(=O)NC2CCCCC2)CC1.O=C(O)C(=O)O,10.2%
16,CCN(CC)c1ccc(/C=N/N2C(=O)c3ccccc3C2=O)cc1,5.96%
17,CCOCCCn1c(NN)nc2ccccc2c1=O,37.5%
18,CC(=O)c1ccc(N2CCN(S(=O)(=O)c3c(C)[nH]c(C)c3C(=O)N3CCCCC3)CC2)cc1,8.31%
19,CCC(=O)Oc1ccc(C2N(C(=O)CC)CCN2S(=O)(=O)c2ccc(C)cc2)cc1OC (stereo not shown),-6.79%
20,COc1cc(SC)ccc1C(=O)Nc1cccc(C2OCCCO2)c1,-35.5%
21,CCOC(=O)c1nc2ccccc2c(=O)n1-c1cccc(C)c1,-0.452%
22,COc1ccc(Cl)cc1S(=O)(=O)N(C)CC(=O)NCc1ccc2c(c1)OCO2,-25%
